# Reference: paper PMC6919601, “Identification of Plasmodium dipeptidyl aminopeptidase allosteric inhibitors by high throughput screening” (PLoS ONE, 2019)
# Out of some 110,000 compounds screened, about 230 (0.21%) showed an effect of 50% or more. This is one part of the list.
# Molecular target: DPAP1 (Plasmodium falciparum, UniProt Q8IIJ9)
# Assay: primary screen, percent inhibition; read by cleavage of a fluorogenic dipeptide substrate; higher = more effect of the substance
# Design: species or system P. falciparum D10 trophozoite lysates; single well
# 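Further: 30 min substrate incubation versus DMSO and 10 µM JCP410 controls.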
# Chain of DPAP1 (Q8IIJ9 whole entry, looked up): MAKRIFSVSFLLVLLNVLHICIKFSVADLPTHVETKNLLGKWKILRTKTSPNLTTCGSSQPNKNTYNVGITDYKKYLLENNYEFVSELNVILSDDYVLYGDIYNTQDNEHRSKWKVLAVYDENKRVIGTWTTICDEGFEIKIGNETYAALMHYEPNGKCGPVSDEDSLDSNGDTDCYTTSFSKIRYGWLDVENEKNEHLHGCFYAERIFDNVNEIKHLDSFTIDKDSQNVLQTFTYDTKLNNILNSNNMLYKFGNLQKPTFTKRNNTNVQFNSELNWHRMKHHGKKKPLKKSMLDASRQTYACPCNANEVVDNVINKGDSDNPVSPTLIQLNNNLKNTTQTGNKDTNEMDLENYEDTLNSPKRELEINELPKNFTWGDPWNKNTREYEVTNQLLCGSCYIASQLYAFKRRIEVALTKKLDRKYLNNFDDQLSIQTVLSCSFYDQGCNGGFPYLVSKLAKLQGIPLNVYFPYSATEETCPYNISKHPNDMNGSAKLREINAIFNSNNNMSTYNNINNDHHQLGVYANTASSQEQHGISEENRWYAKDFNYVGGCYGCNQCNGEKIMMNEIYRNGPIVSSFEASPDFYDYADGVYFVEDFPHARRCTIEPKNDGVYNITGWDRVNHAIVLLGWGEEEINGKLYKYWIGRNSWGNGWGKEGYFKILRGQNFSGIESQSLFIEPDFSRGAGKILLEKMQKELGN
row,Compound,% Inhibition @ 10 uM [%]
1,CCO/C(O)=C1/C(C)=Nc2ncnn2C1c1sccc1C (centres unmarked),0.279
2,CC(=O)N1C(=O)/C(=C\c2cccnc2)N=C1S,-2.15
3,CC(=O)N(C)c1ccc(NC(=O)COc2ccc(Cl)cc2)cc1,9.41
4,COc1ccc(OCc2nc(-c3ccccc3C)no2)cc1,-6.71
5,O=C(NCCCCNC(=O)c1ccc(Br)cc1)c1ccc(Br)cc1,15.8
6,CC1(C)CC(=O)c2c(O)cc(=O)n(-c3ccc(Cl)cc3)c2C1,-6.08
7,CC(C)(C)c1ccc(C2C(C(=O)c3cc4ccccc4o3)=C(O)C(=O)N2CCCn2ccnc2)cc1 (centres unmarked),-3.69
8,Cc1c(C(=O)Nc2ccccc2)cnn1-c1ccccc1,3.53
9,O=C(Nc1cccc2ccccc12)C1CCCCN1S(=O)(=O)c1ccccc1 (centres unmarked),2.65
10,Cc1cccc(-c2nc(CSCC(=O)N3CCOCC3)c(C)o2)c1,-6.64
11,Cc1ccc(NC(=O)[C@@H]2C3C=CC(O3)[C@@H]2C(=O)O)cc1 (some centres unmarked),9.94
12,CCc1ccc(-c2nnc(O)c3ccccc23)cc1,3.15
13,CCO/C(O)=C1\C(CC)=NC2=C(C(=O)CCC2)C1c1ccc(O)c(OC)c1 (centres unmarked),0.736
14,O=C(CC1CCCC1)NCc1cn2ccsc2n1,4.14
15,CCC(C)NC(=O)C1CCCCN1S(=O)(=O)c1ccc(C(C)(C)C)cc1 (centres unmarked),-0.972
16,O=C(NCC1CCCO1)C1CCN(Cc2cnn(-c3ccccc3)c2-n2cccc2)CC1 (centres unmarked),2.27
17,COc1ccc(-c2cnc(NCc3ccc(C(F)(F)F)cc3)n2C)cc1,-2.91
18,C=CCO/C(O)=C1\C(C)=Nc2nnnn2C1c1ccccc1OCC (centres unmarked),-3.37
19,Nc1c(C(=O)c2ccccc2)sc2nccc(Nc3ccccc3)c12,0.878
20,Cc1ccc(F)cc1NC(=O)c1sc2nc3c(cc2c1N)CCC3,-1.24
21,Cc1cccc(/C=C\c2nc(O)c3ccccc3n2)c1,-7.83
22,Cc1ccc(C(=O)Nc2cccc(Cl)c2C)o1,-10.8
23,COc1cccc(C2C3=C(O)CCCC3=NC(C)=C2C(=O)Nc2ccc(Br)cn2)c1 (centres unmarked),1.4
24,CC(C)C[C@H](NC(=O)[C@@H]1CCCN1C(=O)OC(C)(C)C)C(=O)NCC#N,0.174
25,Cc1ccc(C(=O)N/C(=C\c2cccs2)C(=O)N2CCCC(C)C2)cc1C (centres unmarked),0.777
26,O=C(CSc1nc2ccccc2o1)Nc1ccc(Br)cn1,0.0719

row,Compound,% Inhibition @ 10 uM [%]
1,CCn1c(=N)n(CC(=O)c2ccc(Cl)cc2)c2ccccc21,5.63
2,COc1ccc(-c2ccc3c(N)c(C(=O)NCc4ccc(F)cc4)sc3n2)cc1,2.76
3,O=c1c2ccccc2nc(CSc2nnnn2-c2ccccc2)n1-c1ccccc1,4.73
4,Cc1ccc2nc(Cl)cc(SCC(=O)NCc3ccc4c(c3)OCO4)c2c1,2.73
5,N=C(N)/N=C(\N)N1N=CCC1c1ccccc1 (centres unmarked),-6.23
6,CCc1nnc(NC(=O)CSc2nc3c(C)cccc3[nH]2)s1,0.611
7,CCOC(=O)c1c(NC(=O)c2ccccc2Br)sc2c1CCCC2,2.47
8,Cc1ccccc1OCC(=O)Nc1ccc(Br)cc1,2.5
9,O=C(NCc1ccc2c(c1)OCO2)c1cncc(Br)c1,-5.54
10,Cc1cccc(NC(=O)CN2C(=O)S/C(=C\c3ccc(N4CCOCC4)cc3C)C2=O)c1,0.528
11,CC(C)Oc1ccc(CNC(=O)CCCn2ncn3c(cc4occc43)c2=O)cc1,-3.79
12,O=C1NCC2=C1C(c1ccccc1)Nc1ccccc1N2 (centres unmarked),3.18
13,COc1ccc2ccccc2c1C1C(C(C)=O)=C(C)N=c2s/c(=C\c3cc(C)[nH]c3C)c(=O)n21 (centres unmarked),-4.49
14,CC1=[N+]([O-])C(C)(C)CC(C)c2ccccc21 (centres unmarked),3.16
15,Cc1nn(-c2ccccn2)c2c1C(O)=C(/C=N/c1cccc(C(F)(F)F)c1)CC2,-1.98
16,CC(=O)Nc1cccc(NC(=O)c2c(C(=O)O)cccc2[N+](=O)[O-])c1,4.81
17,CC(=O)Nc1ccc(-c2cc3ccccn3c2)cc1,-2.54
18,COc1cc(C2CC(=O)Nc3c2ccc2ccccc32)cc(OC)c1O (centres unmarked),1.62
19,COc1ccc(-c2cc3c(=O)n(CC(=O)NCc4ccccn4)ncn3n2)cc1,5.42
20,Clc1ccc(Nc2nc(Cl)nc(N3CCOCC3)n2)nc1,5.01
21,COc1ccc(C(=O)Cn2c3ccccc3n3nc(-c4ccco4)nc23)cc1,0.189
22,CCCSCCCNC(=O)CS(=O)(=O)Cc1nc(-c2ccccc2C)oc1C,-0.138
23,O=C(Cn1c(=O)n(Cc2ccccc2)c(=O)c2oc3ccccc3c21)NCCc1ccccc1,3.8
24,O=C(CNC(=S)N(Cc1ccccc1)Cc1ccccc1F)NC1CCCC1,5.89
25,CCCc1cc(O)n2nc(NCc3ccccc3OCC)nc2n1,-2.4
26,COc1ccc(CCNC(=O)c2cnn(-c3ccccc3)c2-n2cccc2)cc1OC,0.137

row,Compound,% Inhibition @ 10 uM [%]
1,CCCCC(=O)Nc1sc2c(c1C#N)CCC(CC)C2 (centres unmarked),-2.8
2,CCCC(=O)Nc1ccc(N(CC)CC)cc1C,6.18
3,c1ccc(-c2nnn3c2nc(NCCc2c[nH]c4ccccc24)c2ccccc23)cc1,-1.21
4,CCCOc1ccc(/C=N/OC(=O)c2ccc(C)cc2)cc1,-5.36
5,CCn1c(C(=O)O)c(CNCc2ccc(OC)cc2)c2ccc(C)cc21,-3.56
6,CCN(CC)S(=O)(=O)c1nnc(NC(=O)c2ccco2)s1,-5.37
7,COc1ccc(CCN2C(=S)NC3c4cccc(OC)c4OC2(C)C3C(=O)N(C)C)cc1OC (centres unmarked),-4.01
8,CS(=O)(=O)/N=C/N[C@@H](CSCc1ccccc1OC(F)F)C(=O)NCC#N,-1.5
9,CC1=CCC2(CC1)COC(C)(CC1=NCCN1)OC2 (centres unmarked),-5.47
10,COc1ccc(C2C(C#N)=C(N)Nc3onc(C(C)(C)C)c32)c(OC)c1 (centres unmarked),0.76
11,Cc1cc(C)c2c(C)nn(-c3ccc([N+](=O)[O-])cc3)c2n1,-3.93
12,Cc1cc2c(c(=O)o1)C(c1cccc3ccccc13)C(C#N)=C(N)O2 (centres unmarked),-6.82
13,COc1ccccc1C(=O)Nc1ccccc1O,-1.42
14,N#C/C(=C\c1ccc([N+](=O)[O-])cc1)c1nc(-c2ccc([N+](=O)[O-])cc2)cs1,-2
15,Cc1ccc(Cl)cc1-n1nnc(-c2nsc(NC(=O)c3ccccc3)n2)c1C,-0.836
16,Cc1nnc(-c2ccccc2)c(O)n1,-1.05
17,COc1ccc(CCNC(=O)c2nnn(Cc3ccc(SC)cc3)c2N)cc1OC,-2.25
18,COc1ccc(-n2nnc(-c3nsc(NC(=O)c4cccs4)n3)c2C)cc1Cl,3.29
19,Cc1sc2ncnc(SCC(=O)c3ccc(F)cc3)c2c1C,-7.63
20,O=C(Nc1ccc(-c2nc3ccccc3o2)cc1)c1ccccc1F,-4.21
21,CCOc1ccc(CC(=O)Nc2ccc(NC(C)=O)cc2)cc1OCC,-1.61
22,CC(O)CNc1nc2c(c(=O)n(C)c(=O)n2C)n1Cc1c(Cl)cccc1Cl (centres unmarked),0.279
23,O=S(=O)(NCCC1=CCCCC1)c1ccc(-n2cccn2)cc1,-1.43
24,CC(NC(=O)c1ccc(-n2cnc3cccnc32)cc1)c1ccc2c(c1)OCCO2 (centres unmarked),-0.416
25,Cc1cccc(CCNC(=O)Cn2cnc3onc(-c4ccc(F)cc4)c3c2=O)c1,-1.06
26,COc1ccc(CN2CCN(Cc3ccccc3C)CC2)c(OC)c1,-2.74

row,Compound,% Inhibition @ 10 uM [%]
1,CC1=C(C(=O)NCCCSC2CCCCC2)C2(CCCCC2)OC1=O,-3.7
2,COC(=O)c1ccc(-c2ccco2)n1Cc1ccccc1,1.63
3,CC(=O)Nc1ccc(-c2ccc(NC(C)=O)c(Cl)c2)cc1Cl,-1.74
4,C1CCN(C2CCN(C3CC4CCC3C4)CC2)CC1 (centres unmarked),-1.44
5,c1ccc(-c2nc3c4ccccc4nc(NC4CCCCC4)n3n2)cc1,5.68
6,CCC(C)NC(=O)CCc1c(C)nc2cc(-c3ccc(Cl)cc3)nn2c1C (centres unmarked),2.93
7,COc1ccc(C2CC(=O)C3=C(C2)NC(=O)CC3c2cccc(Cl)c2)cc1 (centres unmarked),0.8
8,CCC1CN(C)CCC1(O)c1ccccc1 (centres unmarked),-11.6
9,CCOC(=O)C1=CN(C)C=C(C(=O)OCC)C1c1ccc(O)cc1,-1.48
10,Cc1cc(C)n(-c2nnc(-c3ccccc3)c(-c3ccccc3)n2)n1,-1.33
11,CC(C)N1C(=O)CCC1C(=O)NCc1ccccc1Cl (centres unmarked),3.66
12,O=C(COc1cccc2cccnc12)N1CCc2ccccc2C1,-1.81
13,CCOC(=O)N1CCN(Cc2ccc3ccccc3c2)CC1,1.62
14,CC(C)C[C@H](NC(=O)c1cc2c(s1)-c1ccccc1CC2)C(=O)NCC#N,-1.82
15,CCOC(=O)C1CCCCN1Cc1ccc(OCc2ccccc2)c(OC)c1 (centres unmarked),0.265
16,CCOC(=O)c1c(C)c(C(=O)NCc2cccnc2)c(C)n1C,-1.66
17,CCCCN(C)Cc1c(C)n(C)n(-c2ccccc2)c1=O,-2.02
18,CC(C)OCCCn1c(=O)c(C#N)cc2c(=O)n3ccccc3nc21,0.913
19,CC1(C)Cc2c(c(N3CCOCC3)nc3sc4c(NCC5CCCO5)ncnc4c23)CO1 (centres unmarked),4.67
20,CC(=O)CCc1c(S)nc2c(C)cccc2c1C,1.4
21,O=C(c1cnn(-c2ccccc2)c1-n1cccc1)N1CCC(N2CCCCC2)CC1,1.8
22,CCn1c(SCC(=O)c2ccc(Cl)cc2)nc2c1c(=O)n(C)c(=O)n2C,3.91
23,Cc1ccc2cc(C3CC(c4ccco4)=NN3S(C)(=O)=O)c(Cl)nc2c1 (centres unmarked),-0.587
